Laboratory results taken from PubChem BioAssay AID1458 (National Center for Advancing Translational Sciences (NCATS), 2008).
Among all 210,000 compounds or so, about 5,900 (2.8%) were called active. The shares of active, inactive and inconclusive entries below differ from those in the screen. Calls follow the shape of the dose curve; as a rule, active = well fitted activation curve with a large enough effect; inconclusive = small, poorly fitted or top-dose-only effect; inactive = no such curve, though single readings can be large or run the other way. Where the call is inconclusive, the potency comes from a doubtful curve fit.

Test: qHTS Assay for Enhancers of SMN2 Splice Variant Expression; also: nearly all actives have a fitted effect of over 55% in size; as to activity change, positive = activation: % of control where 0% means no effect
Conditions: HEK293 SMN2-luciferase splicing reporter, luminescence, 30-36 h; activity change, positive = activation: at 46.1 µM (top of the series)
Method in brief: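 HEK293 cells carry an SMN2 […]–luciferase reporter in which exon 7 inclusion puts luciferase in frame. Cells were plated 10-12 h before compound addition, then incubated 30-36 h at 37C. ONE-Glo luminescence was read; sodium butyrate at 4.5 mM final served as control.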
Potency is read from the fitted curve at half-maximal effect; tags tell the direction and shape of the fitted curve.

SMILES	Potency	activity change, positive = activation
CCCCSc1nnc2c(n1)OC(c1ccc(C)s1)Nc1ccccc1-2 (stereo not drawn)	inconclusive: 35.5 µM [activator, single point]	
O=C(NCc1ccccc1Cl)c1cccc(NC(=O)c2ccccc2)c1	inconclusive: 35.5 µM [activator, single point]	
Cc1ccc(Oc2ncc(CN3CCOCC3)s2)cc1	inconclusive: 0.0045 µM [activator, full curve, poor fit]	
CCOC(=O)c1cnn(-c2nc(SC)nc3sc4c(c23)CCC4)c1N	inconclusive: 10 µM [activator, partial curve, poor fit]	
CC(C)(C)NC(=O)NC(=O)CN1CCCCCCC1	inconclusive: 22.4 µM [activator, single point]	
COc1ccc(CNc2nc3ccccc3n2Cc2ccc(Cl)cc2)cc1OC		inactive: -84%
CCC1CCCCN1CCCNC(=O)c1ccc(N2CCOCC2)c(NS(=O)(=O)c2ccc(OC)cc2)c1 (stereo not drawn)	inconclusive: 31.6 µM [activator, single point]	
Cc1ccc(C(=O)Nc2nc(C)c(C)s2)o1	active: 14.1 µM	
O=C(CCc1ccccc1)Nc1nc2ccc(S(=O)(=O)N3CCOCC3)cc2s1	inconclusive: 1.78 µM [activator, full curve, poor fit]	
COC(=O)CCC(=O)OC1(C)C(=O)C=C2C=C(C3CC3)N(CCN3CCOCC3)C=C2C1=O (stereo not drawn)	inconclusive: 0.178 µM [activator, full curve, poor fit]	
CC(=O)Nc1ccccc1C(=O)C(=O)Nc1ccccc1	inconclusive: 35.5 µM [activator, single point]	
COc1cc(NC(=S)NCc2ccco2)cc(OC)c1OC	inconclusive: 35.5 µM [activator, partial curve, poor fit]	
COc1ccccc1NC(=O)Nc1ccc2c(c1)OCCO2	inconclusive: 14.1 µM [activator, single point]	
COC(=O)c1ccc(C(=O)OCc2nc3cc4ccccc4cc3[nH]2)cc1	inconclusive: 3.55 µM [activator, partial curve, poor fit]	
CN(CCNC(=O)CN1C(=O)CSc2ccc(S(=O)(=O)N3CCCC3)cc21)Cc1ccccc1	inconclusive: 3.55 µM [activator, single point]	
CCc1cc(=O)[nH]c(-n2[nH]c(-c3ccccc3)cc2=O)n1		inactive: 4.25%
CCOc1cc(C(=O)Nc2ccon2)cc(OCC)c1OCC		inactive: 1.46%
Clc1cc(NCc2cccs2)ccc1N1CCOCC1	inconclusive: 22.4 µM [activator, single point]	
